Laboratory results: PubChem BioAssay AID504466 (National Center for Advancing Translational Sciences (NCATS), 2011)
About 4,200 (1.3%) of roughly 330,000 compounds were called active. Inconclusive means that the source gave no clear call. Such entries were picked first, then a sample of the others. The call rests on the fitted dose curve; in most records, active means well fitted activation curve with a large enough effect; inconclusive means small, poorly fitted or top-dose-only effect; inactive means no such curve, though single readings can be large or run the other way. A potency beside an inconclusive call is a rough fit, not a confirmed value.

Experiment: qHTS screen for small molecules that induce genotoxicity in human embryonic kidney (HEK293T) cells expressing luciferase-tagged ELG1; further: nearly all actives have a fitted effect of over 60% in size
Details: HEK293T ELG1-luciferase reporter, luminescence, 16 h; series mostly up to 46 µM
Outline: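 HEK293T cells expressing luciferase-tagged ELG1 were treated with compound or DMSO for 16 hr at 37°C. Luciferase activity was then read after 30 min with ONE-Glo at room temperature; rising signal flags genetic stress.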
Potency means the concentration at half of the fitted maximal effect; tags describe the fitted curve by direction and shape.

SMILES	Potency
CCN(CC)c1ccc(NC(=O)c2ccco2)c(C)c1	inconclusive: 20.6 µM [activator, partial curve, poor fit]
O=C(NCC1CCCCC1)c1ccc(F)cc1Cl	inconclusive: 18.3 µM [activator, single point]
CCOC(=O)Cc1csc(NC(=O)COc2ccc(OC)cc2)n1	inactive
O=C(c1cc(-c2ccc(Cl)cc2Cl)on1)N1CCOCC1	active: 0.651 µM
COc1cc(/C=C2\SC(N3CCCCC3)=NC2=O)cc(OC)c1OC	inconclusive: 18.3 µM [activator, partial curve, poor fit]
CC(=O)Nc1ccc(NC(=O)CSc2ncc(C(=O)Nc3ccc(Cl)cc3)c(=O)n2C)cc1	inconclusive: 16.4 µM [activator, partial curve, poor fit]
CC(C)(C)C(=O)CSc1ncnc2c1cnn2-c1ccccc1	inconclusive: 1.83 µM [activator, partial curve]
O=C(NCCCn1ccnc1)C1c2ccccc2Oc2ccccc21	inactive
O=C1CN(c2nc(-c3cccnc3)nc3sc4c(c23)CCCC4)CCN1	inactive
N#Cc1ccccc1NC(=O)COC(=O)c1ccc(F)cc1F	inactive
CC(C)N1CCc2c(sc(NC(=O)c3ccc(C(=O)c4ccccc4)cc3)c2C(N)=O)C1	inactive
CCCC(=O)NCCc1cc2ccc(C)c(C)c2[nH]c1=O	inconclusive: 14.6 µM [activator, partial curve, poor fit]
O=C(O)c1cccc(-c2ccc(/C=C3/SC(=Nc4ccccc4)N(Cc4cccnc4)C3=O)o2)c1	inconclusive: 14.6 µM [activator, partial curve, poor fit]
N#Cc1cc2ccc(N3CCOCC3)cc2cc1C#N	inconclusive: 32.6 µM [activator, partial curve, poor fit]
CCOC(=O)Cc1csc(NC(=O)c2ccoc2C)n1	active: 14.6 µM
COc1ccc(/C(C)=N/Nc2nccnc2Cl)cc1	inconclusive: 16.4 µM [activator, partial curve]
CCOc1ccc(NC(=O)CN2C(=O)NC(CCc3ccccc3)C2=O)cc1OCC (stereo not drawn)	inactive
CN(Cc1cccs1)C(=O)CCc1c[nH]c2ccccc12	inactive
O=C(NCc1ccco1)c1ccc(-c2cccc(Cl)c2)o1	inconclusive: 29.1 µM [activator, partial curve, poor fit]
COc1ccc(C(=O)NCCC2=CCCCC2)cc1OC	inconclusive: 16.4 µM [activator, single point]
Cn1cc([N+](=O)[O-])c(C(=O)Nc2ccc3nc(-c4ccccc4)[nH]c3c2)n1	inconclusive: 20.6 µM [activator, partial curve, poor fit]
Cc1cc(NS(=O)(=O)c2ccc(NC(=O)c3c(F)c(F)c(F)c(F)c3F)cc2)nc(C)n1	inactive
CCN(CC)C(=O)CSc1nc(N)c2c3c(sc2n1)CC(C)CC3 (stereo not drawn)	inactive
Clc1ccccc1-c1cc(COc2ccc3ccccc3c2)no1	inconclusive: 25.9 µM [activator, single point]
Cc1ccc(-n2c([O-])nc(-[n+]3ccccc3)c2C=O)cc1	inactive

SMILES	Potency
Nc1nc2c(-c3ccc(Br)cc3)nnn2c2ccccc12	active: 11.6 µM
COc1ccc(-c2cc(-c3ccccc3)no2)cc1	inconclusive: 0.82 µM [activator, partial curve]
CC1(C)CC(Cc2nc(=S)[nH][nH]2)C(=O)O1 (stereo not drawn)	inactive
Nc1ccc2nn(-c3ccccc3)nc2c1	inconclusive: 2.59 µM [activator, full curve]
O=C(/C=C/c1ccccc1)OCc1cncs1	inconclusive: 20.6 µM [activator, partial curve, poor fit]
COCCn1c(C)cc(C(=O)CSc2cc(C)c3ccccc3n2)c1C	inactive
CCOc1ccc(NC(=O)c2ccc3c(SCC(=O)O)c4c(nc3c2)CCCC4)cc1	inactive
COc1ccc2oc(C(=O)Nc3nccs3)c(C)c2c1	active: 0.517 µM
O=C(CSc1nc2ccccc2c(=O)n1NC(=O)c1ccccc1)c1ccc(Cl)cc1	inconclusive: 2.31 µM [activator, full curve]
Cc1cc(-c2ccc(C(=O)O)s2)cnc1N	inconclusive: 20.6 µM [activator, single point]
O=C(CSc1nnc(-c2cccnc2)o1)Nc1nccs1	inconclusive: 16.4 µM [activator, partial curve, poor fit]
N#Cc1c(NC(=O)c2cnn3cccnc23)sc2c1CCCC2	inconclusive: 16.4 µM [activator, partial curve]
CCN(CC)c1ccc(/C=N/NC(=O)c2ccoc2C)cc1	active: 0.73 µM
Cc1ccc(C2C(C#N)=C(N)Oc3c2sc2ccccc32)o1 (stereo not drawn)	inconclusive: 20 µM [activator, single point]
Cc1nc2c(-c3ccc(F)cc3)cnn2c(N)c1-c1ccccc1	active: 0.58 µM
CC1=C(CC(=O)c2ccc(Cl)cc2)C(=O)c2ccccc2C1=O	inconclusive: 16.4 µM [activator, partial curve]
Cc1cc(C(=O)O)ccc1-c1ccc(/C=C2\SC(=O)N(CC(=O)Nc3ccc4c(c3)OCO4)C2=O)o1	inactive
CC1CCN(C(=O)Cn2nnc(-c3ccccc3)n2)CC1	inconclusive: 23.1 µM [activator, partial curve, poor fit]
O=C(Nc1cc2c(cc1Br)OCCCO2)c1cccnc1	inconclusive: 18.3 µM [activator, single point]
O=[N+]([O-])c1cc2c(cc1/C=N\NS(=O)(=O)c1ccccc1)OCO2	inconclusive: 23.1 µM [activator, single point]
Cc1ccc(NC(=O)COc2ccc3c(c2)OCO3)c(C)c1	inconclusive: 20.6 µM [activator, partial curve, poor fit]
Cn1c(=O)cc(OCC(=O)N2CCC(N3CCCCC3)CC2)c2ccccc21	inconclusive: 20.6 µM [activator, single point]
CC(=O)c1ccc(S(=O)(=O)Nc2cccc(-c3ccc(N4CCOCC4)nn3)c2)cc1	inactive
CCn1c(/C=C/c2cc(Br)ccc2O)nc2ccccc2c1=O	inactive
COc1ccc2nc(NC(=S)NC(=O)c3ccco3)sc2c1	inconclusive: 9.2 µM [activator, partial curve, poor fit]

SMILES	Potency
NC(=S)N/N=C/c1ccc(C23CC4CC(CC(C4)C2)C3)cc1	inconclusive: 29.1 µM [activator, single point]
O=C(CNC(=O)c1cccs1)OCC(=O)c1ccc(Br)cc1	inactive
CC(=O)Nc1cc(C(=O)N2CCc3ccccc3C2)ccc1Sc1ccc(F)cc1	inactive
CN(C)C(=O)c1cccn(Cc2ccc(C(F)(F)F)cc2)c1=O	inactive
c1ccc(CCc2nc(-c3cccnc3)no2)cc1	inconclusive: 16.4 µM [activator, partial curve, poor fit]
COc1cc(OC)c2c(-c3cccc(-c4ccc(OC)c(OC)c4)c3)cc(=O)oc2c1	inconclusive: 3.66 µM [activator, full curve, poor fit]
COC(=O)c1sc(-c2ccc(C(C)(C)C)cc2)cc1NC(=O)CCC(=O)O	inconclusive: 25.9 µM [activator, partial curve, poor fit]
Brc1ccc(-c2cn3ccccc3n2)s1	active: 0.651 µM
Cc1ccc(NC(=O)c2sc3nc(N)c(C#N)cc3c2N)cc1	inconclusive: 9.2 µM [activator, partial curve]
O=C(CSCc1ccc(Cl)cc1)Nc1ccc2c(c1)OCCO2	inactive
COc1ccccc1C(=O)O/N=C(\N)c1ccccc1Cl	inconclusive: 20.6 µM [activator, partial curve, poor fit]
COc1cc2ccccc2cc1C(=O)Nc1cc(C)ccn1	inconclusive: 3.26 µM [activator, single point]
COc1ccc(-n2nc3c(N4CCC(C(=O)NCc5cccc(C)c5)CC4)nnc(C)c3c2C)cc1	inconclusive: 29.1 µM [activator, single point]
O=S(=O)(Nc1ccc2oc(-c3ccccc3)nc2c1)c1ccccc1	inactive
O=C(CCN1C(=O)c2cccc3cccc(c23)C1=O)N1CCOCC1	inconclusive: 23.1 µM [activator, single point]
CSc1nc(C)cc(SCC(=O)N/N=C/c2ccccc2)n1	inactive
COC(=O)c1sc(Nc2ccccc2)nc1C	inconclusive: 18.4 µM [activator, single point]
COc1ccc(C2CC(=O)c3sc(NC(C)=O)nc3C2)cc1 (stereo not drawn)	inconclusive: 18.4 µM [activator, partial curve]
CCn1c2ccccc2c2cc(NC(=O)COC(=O)C3CCC(=O)N3)ccc21 (stereo not drawn)	inconclusive: 16.4 µM [activator, single point]
O=C1CC2C(CC(OC(=O)c3ccc(-c4ccccc4)cc3)C2CO)O1 (stereo not drawn)	inconclusive: 8.91 µM [activator, partial curve, poor fit]
c1cncc(-c2nc3cc4ccccc4cc3[nH]2)c1	inconclusive: 1.46 µM [activator, full curve]
CCCCC(=O)Nc1cnc(NC(=O)c2ccco2)cc1C	inconclusive: 18.3 µM [activator, partial curve, poor fit]
CCOc1ccc(N=Nc2ccc(O)c3ncccc23)cc1	inconclusive: 14.6 µM [activator, partial curve, poor fit]
